{
  "source": "PubChem BioAssay AID485294",
  "about": "(National Center for Advancing Translational Sciences (NCATS), 2010)",
  "note": "About 150 (0.041%) of roughly 370,000 compounds were called active. Inconclusive means that the source gave no clear call. Such entries were picked first, then a sample of the others. Calls come from the whole dose curve; as a rule, active = well fitted inhibition curve with a large enough effect; inconclusive = small, poorly fitted or top-dose-only effect; inactive = flat fitted curve, though single readings scatter. No potency is given beside an inconclusive call; the fits are too rough. Potency is the fitted concentration of half-maximal effect; tags give direction and shape of the fitted curve.",
  "data": [
    {"target": "Beta-lactamase (Escherichia coli (strain K12)) (UniProt P00811)", "sequence (P00811 whole entry, looked up)": "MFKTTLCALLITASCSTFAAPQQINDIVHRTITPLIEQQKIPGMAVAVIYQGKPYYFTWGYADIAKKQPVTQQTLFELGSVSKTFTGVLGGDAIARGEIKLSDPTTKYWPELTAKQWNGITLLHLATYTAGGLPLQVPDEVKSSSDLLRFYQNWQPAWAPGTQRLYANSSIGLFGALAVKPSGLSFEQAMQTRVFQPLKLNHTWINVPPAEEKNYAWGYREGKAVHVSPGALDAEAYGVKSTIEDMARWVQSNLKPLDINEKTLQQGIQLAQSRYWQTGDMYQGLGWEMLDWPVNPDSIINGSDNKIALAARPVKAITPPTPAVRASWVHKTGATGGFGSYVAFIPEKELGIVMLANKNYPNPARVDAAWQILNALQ", "assay": "qHTS Inhibitors of AmpC Beta-Lactamase (assay with detergent); note: nearly all actives have a fitted effect of over 25% in size", "conditions": "AmpC hydrolysis of nitrocefin, absorbance 480 nm, 0.01% Triton; series mostly up to 114 µM", "how_it_was_run": "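AmpC (5.3 nM in the dispensed reagent) in 20 mM phosphate pH 7.0 with 0.01% (detergent screen) or 0.0001% Triton X-100 was preincubated with compounds for 15 min at room temperature. Nitrocefin was then added from an 800 uM solution, and hydrolysis was followed at 480 nm.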", "values": [
      {"smiles": "CCOc1ccc(Br)cc1CNCCN1CCOCC1", "Potency": "inconclusive [inhibitor, full curve, poor fit]"},
      {"smiles": "CCCCn1c(CCNC(=O)c2cccs2)nc2ccccc21", "Potency": "inconclusive [inhibitor, full curve, poor fit]"},
      {"smiles": "CCN(CC(=O)NC1CCS(=O)(=O)C1)S(=O)(=O)c1ccc(F)cc1", "note": "(stereo not given)", "Potency": "inconclusive [inhibitor, partial curve]"},
      {"smiles": "CCOC(=O)N1CCC(N2Cc3cccc(C(=O)Nc4cc(F)ccc4F)c3C2=O)CC1", "Potency": "inconclusive [inhibitor, full curve]"},
      {"smiles": "CCc1ccccc1NC(=O)C(CCSC)NS(=O)(=O)c1ccc2c(c1)oc(=O)n2C", "note": "(stereo not given)", "Potency": "inactive"},
      {"smiles": "CCOC(=O)N1CCN(C(=O)c2cnn(-c3cccc(F)c3)c2-n2cccc2)CC1", "Potency": "inactive"},
      {"smiles": "Cc1noc(/C=C/N(C)C)c1S(=O)(=O)N1CCC(C(=O)O)CC1", "Potency": "inconclusive [inhibitor, full curve]"},
      {"smiles": "Cc1ccccc1-c1nn2c(=O)cc(CN3CCN(C(=O)c4ccccc4Br)CC3)nc2s1", "Potency": "inactive"},
      {"smiles": "COc1ccccc1CNC(=O)[C@H](C)NC(=O)C1CCN(C(=O)[C@@H](N)CCSC)CC1", "Potency": "inconclusive [inhibitor, full curve, poor fit]"},
      {"smiles": "CCCCC(CC)CNC(=O)CCS(=O)(=O)c1cccc2nsnc12", "note": "(stereo not given)", "Potency": "inconclusive [inhibitor, full curve, poor fit]"},
      {"smiles": "Cc1ccccc1CN(C)C(=O)c1ccc2ccccc2n1", "Potency": "inconclusive [inhibitor, partial curve, poor fit]"},
      {"smiles": "Cc1cccc(Oc2nc3c(c(=O)n(C)c(=O)n3C)n2C)c1C", "Potency": "inactive"},
      {"smiles": "CCOc1ccc(C(CCc2ccccc2)NC(=O)c2ccccc2F)cc1OCC", "note": "(stereo not given)", "Potency": "inactive"},
      {"smiles": "COc1ccc2oc(C(=O)OCC(=O)Nc3cc(S(=O)(=O)N4CCOCC4)ccc3C)c(C)c2c1", "Potency": "inconclusive [inhibitor, partial curve, poor fit]"},
      {"smiles": "Cc1cc(S(=O)(=O)NCc2ccccc2)ccc1OCC(=O)Nc1cccc([N+](=O)[O-])c1", "Potency": "inactive"},
      {"smiles": "O=C(Nc1ccnn1C1CCN(C2CCC2)CC1)c1ccccc1", "Potency": "inconclusive [inhibitor, full curve, poor fit]"},
      {"smiles": "O=C(Oc1nsnc1N1CCOCC1)N(c1ccccc1)c1ccccc1", "Potency": "inconclusive [inhibitor, single point]"},
      {"smiles": "Cc1cccc2cc(CN(CCN3CCOCC3)C(=O)Nc3ccccc3F)c(=O)[nH]c12", "Potency": "inconclusive [inhibitor, full curve, poor fit]"},
      {"smiles": "CN(C1CCS(=O)(=O)C1)S(=O)(=O)c1cccc2nsnc12", "note": "(stereo not given)", "Potency": "inconclusive [inhibitor, full curve]"},
      {"smiles": "Cc1cc(N2CCN(c3ccccc3)CC2)nc(-c2ccccc2)n1", "Potency": "inconclusive [inhibitor, partial curve]"},
      {"smiles": "CC(=O)C1=C(C)NC(=O)NC1c1ccccc1OCC(=O)NCCc1ccccc1", "note": "(stereo not given)", "Potency": "inconclusive [inhibitor, full curve, poor fit]"},
      {"smiles": "O=C(NCCCO)/C(=C/c1ccco1)NC(=O)c1ccc(Br)o1", "Potency": "inconclusive [inhibitor, full curve]"},
      {"smiles": "O=C(/C=C/c1ccccc1)NC(=S)Nc1cccnc1", "Potency": "inactive"},
      {"smiles": "C/C(=N/NS(=O)(=O)c1ccccc1)c1c[nH]c2ccccc12", "Potency": "inconclusive [inhibitor, full curve, poor fit]"},
      {"smiles": "CCOC(=O)C1=C(COC(=O)c2ccccc2OC(F)F)NC(=O)NC1C", "note": "(stereo not given)", "Potency": "inconclusive [inhibitor, full curve, poor fit]"},
      {"smiles": "C1=CCC(CN2CCN(C3CCCCCC3)CC2)CC1", "note": "(stereo not given)", "Potency": "inconclusive [inhibitor, single point]"},
      {"smiles": "CCc1ccc(OCCCN=C(C)c2c(O)n(C)c(=O)n(C)c2=O)cc1", "Potency": "inconclusive [inhibitor, single point]"},
      {"smiles": "c1ccc(CCNc2ccnc3cc4ccccc4cc23)cc1", "Potency": "inactive"},
      {"smiles": "COc1ccc(C2c3ccc4ccccc4c3Oc3ncn(CCN(C)C)c(=N)c32)cc1", "note": "(stereo not given)", "Potency": "inactive"},
      {"smiles": "O=C(O)c1ccc2c(c1)C(=O)N(Cc1ccccc1)C2=O", "Potency": "inactive"},
      {"smiles": "COC(=O)CCc1c(C)c(C#N)c2nc3ccccc3n2c1N1CCCC1", "Potency": "inconclusive [inhibitor, partial curve, poor fit]"},
      {"smiles": "CCOC(=O)c1nn(-c2ccccc2)c(=O)cc1OCC(=O)Nc1ccccc1OCC", "Potency": "inconclusive [inhibitor, full curve, poor fit]"},
      {"smiles": "O=C(CN1C(=O)NC2(CCCCC2)C1=O)N1CCN(S(=O)(=O)/C=C/c2ccccc2)CC1", "Potency": "inconclusive [inhibitor, partial curve, poor fit]"},
      {"smiles": "Cc1ccc(NC(=O)C2CC(=O)Nc3ncnn32)cc1Cl", "note": "(stereo not given)", "Potency": "inconclusive [inhibitor, single point]"},
      {"smiles": "CC(=O)Nc1ccc(NC(=O)c2ccco2)cc1", "Potency": "inconclusive [inhibitor, full curve, poor fit]"},
      {"smiles": "O=C(Cn1c2ccccc2c2nc3n(c(=O)c21)CCS3)Nc1ccccc1C(F)(F)F", "Potency": "inconclusive [inhibitor, single point]"},
      {"smiles": "Cc1ccc(NC(=S)NC2CCCC2)cc1", "Potency": "inconclusive [inhibitor, full curve, poor fit]"},
      {"smiles": "CCCOc1ccc(C(=O)NNC(=S)NC(=O)CC)cc1", "Potency": "inconclusive [inhibitor, partial curve, poor fit]"},
      {"smiles": "COC(=O)c1cc(S(=O)(=O)Nc2c(C)cccc2C)cn1C", "Potency": "inconclusive [inhibitor, partial curve, poor fit]"},
      {"smiles": "CSCC[C@H](NC(=O)N1CCn2c1nc1ccccc12)C(=O)N[C@@H](C(=O)O)c1ccccc1", "Potency": "inconclusive [inhibitor, partial curve]"},
      {"smiles": "CCN1C(=O)CC(c2ccco2)Sc2ccccc21", "note": "(stereo not given)", "Potency": "inactive"},
      {"smiles": "NNc1nc2c(-c3ccc(F)cc3)nnn2c2ccccc12", "Potency": "inconclusive [inhibitor, partial curve, poor fit]"},
      {"smiles": "O=C1COc2ccc(S(=O)(=O)CCC(=O)NC3CCCCC3)cc2N1", "Potency": "inactive"},
      {"smiles": "COc1ccc(S(=O)(=O)Nc2ccccc2N2CCOCC2)cc1[N+](=O)[O-]", "Potency": "inactive"},
      {"smiles": "COc1ccccc1NC(=O)COC(=O)CCn1c(C)csc1=O", "Potency": "inconclusive [inhibitor, single point]"},
      {"smiles": "CCOCCCn1c(=NC(C)=O)c(C#N)cc2c(=O)n3cccc(C)c3nc21", "Potency": "inactive"},
      {"smiles": "COc1ccc(S(=O)(=O)N2CCCCCC2)cc1C(=O)N(C)Cc1ccc(Cl)cc1Cl", "Potency": "inactive"},
      {"smiles": "Cc1cc(C)cc(NC(=O)CCNS(=O)(=O)c2ccc3c(c2)oc(=O)n3C)c1", "Potency": "inconclusive [inhibitor, full curve, poor fit]"},
      {"smiles": "COc1ccc(-c2coc3cc(O)ccc3c2=O)cc1OC", "Potency": "inactive"},
      {"smiles": "CCOc1ccccc1CNC(=O)C1CCN(C(=O)N2CC(C)Oc3ccc(C)cc32)CC1", "note": "(stereo not given)", "Potency": "inconclusive [inhibitor, partial curve]"},
      {"smiles": "Clc1ccc(-c2ccc(/C=N/Nc3cc(N4CCOCC4)nc(N4CCOCC4)n3)o2)cc1", "Potency": "inactive"},
      {"smiles": "COc1cc(C(=O)NCCSc2c(-c3ccccc3)[nH]c3ccccc23)cc(OC)c1OC", "Potency": "inconclusive [inhibitor, single point]"},
      {"smiles": "CCN(CC)c1ccc(/C=C2/C(=O)NC(=O)N(Cc3ccco3)C2=O)cc1", "Potency": "inconclusive [inhibitor, partial curve, poor fit]"},
      {"smiles": "Cc1ccccc1-c1nc(CS(=O)(=O)CC(=O)NCCN2CCOCC2)c(C)o1", "Potency": "inconclusive [inhibitor, full curve]"},
      {"smiles": "Cc1ccc(-c2cc(C(=O)N(C)Cc3cnn(C)c3C)c3cc(Br)ccc3n2)cc1", "Potency": "inconclusive [inhibitor, single point]"},
      {"smiles": "COc1ccc(O[C@H]2C=C[C@@H](c3ccccc3)O[C@@H]2CO/N=C(\\C)CCN2CCCCc3nc(C)c(C)cc32)cc1", "Potency": "inconclusive [inhibitor, full curve, poor fit]"},
      {"smiles": "O=C(NCc1cccs1)c1cnc(Cl)c(Cl)c1", "Potency": "inconclusive [inhibitor, full curve, poor fit]"},
      {"smiles": "O=C(CSc1nc2ccccc2[nH]1)N1CCN(S(=O)(=O)c2ccc(Cl)cc2)CC1", "Potency": "inconclusive [inhibitor, full curve, poor fit]"},
      {"smiles": "CS(=O)(=O)c1ccc(N)cc1", "Potency": "inconclusive [inhibitor, full curve]"},
      {"smiles": "CC(C)Nc1ncnc2ccc(Br)cc12", "Potency": "inconclusive [inhibitor, full curve, poor fit]"},
      {"smiles": "CCN(CC(=O)Nc1ccc2c(c1)OCCO2)C(=O)CN1C(=O)NC(C)(c2ccc(C)cc2)C1=O", "note": "(stereo not given)", "Potency": "inconclusive [inhibitor, full curve, poor fit]"},
      {"smiles": "Cc1c(C(=O)NCCN2CCOCC2)oc2ccc(Br)cc12", "Potency": "inconclusive [inhibitor, full curve, poor fit]"},
      {"smiles": "Cc1ccccc1OCC(=O)Nc1ccc(N2CCN(S(C)(=O)=O)CC2)cc1", "Potency": "inconclusive [inhibitor, partial curve, poor fit]"},
      {"smiles": "Cc1cc(=O)[nH]c2n[nH]c(-c3ccccc3)c12", "Potency": "inconclusive [inhibitor, full curve, poor fit]"},
      {"smiles": "O=c1c2ccccc2c(C=Nc2cccc(S(=O)(=O)NCc3ccco3)c2)c(O)n1-c1ccc(Cl)cn1", "Potency": "inconclusive [inhibitor, partial curve, poor fit]"}
    ]}
  ]
}
